Laboratory results taken from patent US7585851B2, “3′-prodrugs of 2′-deoxy-β-L-nucleosides” (priority 2000, dated 2009).
Where two headings read alike, the source gives them in different places.

Key:
human DNA polymerase α [1] = target: T1, human DNA polymerase α (Homo sapiens, UniProt P09884); settings: from Chang, et al. / Yao, read-out: IC50 Human DNA pol α; cited from earlier work
T1 sequence (P09884 1-1462): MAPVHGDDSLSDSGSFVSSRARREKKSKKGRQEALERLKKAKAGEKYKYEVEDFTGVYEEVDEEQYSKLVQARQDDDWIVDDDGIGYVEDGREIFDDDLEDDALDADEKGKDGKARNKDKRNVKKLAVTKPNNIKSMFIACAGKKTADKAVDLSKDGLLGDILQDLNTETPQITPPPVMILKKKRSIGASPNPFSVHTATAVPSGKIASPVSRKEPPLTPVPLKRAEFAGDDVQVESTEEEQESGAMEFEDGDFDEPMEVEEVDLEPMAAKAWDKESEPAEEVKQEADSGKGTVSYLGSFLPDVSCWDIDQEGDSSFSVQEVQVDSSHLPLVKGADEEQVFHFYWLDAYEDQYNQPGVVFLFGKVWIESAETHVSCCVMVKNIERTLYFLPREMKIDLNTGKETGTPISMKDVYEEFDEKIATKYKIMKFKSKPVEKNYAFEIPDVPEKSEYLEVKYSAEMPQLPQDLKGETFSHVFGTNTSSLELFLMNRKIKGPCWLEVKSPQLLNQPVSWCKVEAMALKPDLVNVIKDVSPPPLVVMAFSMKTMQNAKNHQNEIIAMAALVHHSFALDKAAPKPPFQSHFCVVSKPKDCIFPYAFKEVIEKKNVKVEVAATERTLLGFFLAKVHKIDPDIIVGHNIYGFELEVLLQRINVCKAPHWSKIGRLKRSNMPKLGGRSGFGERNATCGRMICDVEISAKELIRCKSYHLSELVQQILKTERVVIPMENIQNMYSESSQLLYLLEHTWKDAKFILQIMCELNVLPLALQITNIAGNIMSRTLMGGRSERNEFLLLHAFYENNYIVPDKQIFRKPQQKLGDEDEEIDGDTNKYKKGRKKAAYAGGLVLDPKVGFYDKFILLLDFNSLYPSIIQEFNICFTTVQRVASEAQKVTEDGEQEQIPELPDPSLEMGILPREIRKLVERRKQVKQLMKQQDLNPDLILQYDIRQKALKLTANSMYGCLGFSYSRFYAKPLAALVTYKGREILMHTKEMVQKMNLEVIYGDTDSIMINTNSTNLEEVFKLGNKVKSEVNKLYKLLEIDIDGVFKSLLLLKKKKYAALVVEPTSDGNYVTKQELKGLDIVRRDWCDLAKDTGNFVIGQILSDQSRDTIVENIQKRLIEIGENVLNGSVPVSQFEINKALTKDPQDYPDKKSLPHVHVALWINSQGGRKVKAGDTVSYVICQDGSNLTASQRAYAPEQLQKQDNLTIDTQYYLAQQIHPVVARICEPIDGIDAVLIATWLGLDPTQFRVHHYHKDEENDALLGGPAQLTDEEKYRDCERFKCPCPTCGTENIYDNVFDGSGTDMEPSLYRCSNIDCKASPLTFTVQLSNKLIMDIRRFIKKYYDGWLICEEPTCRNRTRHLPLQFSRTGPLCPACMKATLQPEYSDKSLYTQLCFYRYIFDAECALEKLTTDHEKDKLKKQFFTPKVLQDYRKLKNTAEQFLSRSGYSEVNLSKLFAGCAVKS

human DNA polymerase α [2] = target: T1, human DNA polymerase α; type: biochemical; settings: highest concentration tested 100 μM; read-out: IC50 Human DNA pol α
Excerpt: Nucleosides and nucleoside analogs are usually metabolized within cells to their TP derivatives. Cellular DNA polymerases are routinely responsible for normal nuclear and mitochondrial DNA synthesis and repair. Because the TP metabolites are potential substrates for DNA polymerases, studies were undertaken to determine if L-dC-TP inhibited human DNA polymerases.

For `Cc1cn([C@H]2O[C@@H](COP(=O)(O)OP(=O)(O)OP(=O)(O)O)[C@H](O)[C@H]2F)c(=O)[nH]c1=O` [L-FMAU-TP], the IC50 (human DNA polymerase α [1]) is listed as over 50 µM.
For `Nc1ccn([C@@H]2CS[C@H](COP(=O)(O)OP(=O)(O)OP(=O)(O)O)O2)c(=O)n1` [Lamivudine-TP], the IC50 (human DNA polymerase α [1]) is given as over 5 µM.
In the case of `Nc1ccn([C@@H]2C[C@@H](O)[C@H](COP(=O)(O)OP(=O)(O)OP(=O)(O)O)O2)c(=O)n1` [L-dC-TP], the IC50 (human DNA polymerase α [2]) is reported as over 100 µM.
With `O=c1ccn([C@@H]2C[C@@H](O)[C@H](COP(=O)(O)OP(=O)(O)OP(=O)(O)O)O2)c(=O)[nH]1` [L-dU-TP, β-L-2′-deoxyuridine 5′-triphosphate] the IC50 (human DNA polymerase α [2]) was over 100 µM.
